Source: patent US7592316B2, “Peptides as NS3-serine protease inhibitors of hepatitis C virus” (Schering Corporation, priority 2000, dated 2009)
*1 amine or outer side, *2 acyl side, *3 side chain or, on linkers, in order; H or OH if unused. Where a SMILES comes first, the peptide text is derived from it. Side-chain parts run from the residue outwards. [ ]: non-standard residue; d: D form. The star is where a group is joined. ξ: configuration not given here. Pro(trans-4-NH2) = O=C([C@@H]1C[C@@H](N[*:3])CN1[*:1])[*:2]; Pro(3S,4R-methano) = O=C(O)[C@H]1NC[C@@H]2C[C@@H]21; ξPro(4R-NH2) = O=C(C1C[C@@H](N[*:3])CN1[*:1])[*:2]; Naphthalene1sulfonyl = O=S(=O)(c1cccc2ccccc12)*; Pro(5R-Ph) = O=C(O)[C@@H]1CC[C@H](c2ccccc2)N1; 2Naphthylsulfonyl = O=S(=O)(c1ccc2ccccc2c1)*; Gly(1-Me-cHex) = CC1([C@H](N)C(=O)O)CCCCC1; Pro(4,4-Me2) = CC1(C)CN[C@H](C(=O)O)C1; Pro(4S-Me) = C[C@@H]1CN[C@H](C(=O)O)C1; Pro(5S-Me) = C[C@H]1CC[C@@H](C(=O)O)N1; X12 = CCC[C@H](N[*:1])C(=O)C(=O)[*:2]; Isobutyloxycarbonyl = CC(C)COC(=O)*; NH(1-naphthyl) = c1ccc2c(N*)cccc2c1; Benzyl(3,4-Cl2) = Clc1ccc(C*)cc1Cl; cisHyp = O=C(O)[C@@H]1C[C@H](O)CN1; X15 = CC(=O)Nc1ccc(S(=O)(=O)*)cc1; Hyp = O=C(O)[C@@H]1C[C@@H](O)CN1; X2 = CCCC(N[*:1])C(=O)C(=O)[*:2]; X62 = O=S(=O)(c1cccc2cccnc12)*; Chg = N[C@H](C(=O)O)C1CCCCC1; Phg = N[C@H](C(=O)O)c1ccccc1; Tle = CC(C)(C)[C@H](N)C(=O)O; ξChg = NC(C(=O)O)C1CCCCC1; ξPhg = NC(C(=O)O)c1ccccc1; ξNle = CCCCC(N)C(=O)O; CO = O=C([*:1])[*:2]; Bn = c1ccc(C*)cc1; ξS = NC(CO)C(=O)O; tBu = CC(C)(C)*

target: HCV NS3/NS4A protease (strain 1a) (Hepatitis C virus genotype 1a, UniProt P27958); assay: biochemical; details: Compounds prepared by Solid Phase Synthesis, Table 3; read-out: Ki* CLASS

Row | SMILES | Ki
1 | CCCC(NC(=O)[C@@H]1C[C@@H](OCc2ccc(Cl)c(Cl)c2)CN1C(=O)C(NC(=O)OCC(C)C)C1CCCCC1)C(=O)C(=O)NCC(=O)NC(COC(C)(C)C)C(N)=O (some centres unmarked) (Isobutyloxycarbonyl-[ξChg][Hyp](Benzyl(3,4-Cl2))[X2]G[ξS](tBu)-NH2) | 101 to 1000 nM
2 | CCCCC(NC(=O)CNC(=O)C(=O)C(CCC)NC(=O)[C@@H]1C[C@@H](OCc2ccccc2)CN1C(=O)C(NC(=O)OCC(C)C)C1CCCCC1)C(N)=O (some centres unmarked) (Isobutyloxycarbonyl-[ξChg][Hyp](Bn)[X2]G[ξNle]-NH2) | 101 to 1000 nM
3 | CCCC(NC(=O)[C@@H]1C[C@@H](OCc2ccccc2)CN1C(=O)C(NC(=O)OCC(C)C)C1CCCCC1)C(=O)C(=O)NCC(=O)NC(C(N)=O)c1ccccc1 (some centres unmarked) (Isobutyloxycarbonyl-[ξChg][Hyp](Bn)[X2]G[ξPhg]-NH2) | 1 to 100 nM

same assay, conditions: Table 4; HCV NS3/NS4A protease, spectrophotometric assay, 30° C., pH 6.5; read-out: Ki* Range

Row | SMILES | Ki
4 | CCC[C@H](NC(=O)[C@@H]1C[C@H](C)CN1C(=O)[C@@H](NC(=O)OCC(C)C)C1CCCCC1)C(=O)C(=O)NCC(=O)N[C@H](C(=O)N(C)C)c1ccccc1 (Isobutyloxycarbonyl-[Chg][Pro(4S-Me)][X12]G[Phg]-NMe2) | 1 to 100 nM
5 | CCCC(NC(=O)[C@@H]1CC[C@H](c2ccccc2)N1C(=O)[C@@H](NC(=O)OCC(C)C)C1CCCCC1)C(=O)C(=O)NCC(=O)NC(C(=O)O)c1ccccc1 (stereo partly drawn) (Isobutyloxycarbonyl-[Chg][Pro(5R-Ph)][X2]G[ξPhg]-OH) | 101 to 1000 nM
6 | CCC[C@H](NC(=O)[C@@H]1CC[C@H](C)N1C(=O)[C@@H](NC(=O)OCC(C)C)C1CCCCC1)C(=O)C(=O)NCC(=O)N[C@H](C(=O)N(C)C)c1ccccc1 (Isobutyloxycarbonyl-[Chg][Pro(5S-Me)][X12]G[Phg]-NMe2) | 1 to 100 nM
7 | CCCC(NC(=O)[C@@H]1C[C@@H](NS(=O)(=O)c2cccc3ccccc23)CN1C(=O)[C@@H](NC(=O)OCC(C)C)C1CCCCC1)C(=O)C(=O)NCC(=O)N[C@H](C(N)=O)c1ccccc1 (stereo partly drawn) (Isobutyloxycarbonyl-[Chg][Pro(trans-4-NH2)](Naphthalene1sulfonyl)[X2]G[Phg]-NH2) | 101 to 1000 nM
8 | CCCC(NC(=O)[C@@H]1C[C@@H](NS(=O)(=O)c2cccc3cccnc23)CN1C(=O)[C@@H](NC(=O)OCC(C)C)C1CCCCC1)C(=O)C(=O)NCC(=O)N[C@H](C(N)=O)c1ccccc1 (stereo partly drawn) (Isobutyloxycarbonyl-[Chg][Pro(trans-4-NH2)](X62)[X2]G[Phg]-NH2) | 101 to 1000 nM
9 | CCCC(NC(=O)C1C[C@@H](NS(=O)(=O)c2ccc3ccccc3c2)CN1C(=O)[C@@H](NC(=O)OCC(C)C)C1CCCCC1)C(=O)C(=O)NCC(=O)N[C@H](C(N)=O)c1ccccc1 (stereo partly drawn) (Isobutyloxycarbonyl-[Chg][ξPro(4R-NH2)](2Naphthylsulfonyl)[X2]G[Phg]-NH2) | 101 to 1000 nM
10 | CCCC(NC(=O)C1C[C@@H](NS(=O)(=O)c2ccc(NC(C)=O)cc2)CN1C(=O)[C@@H](NC(=O)OCC(C)C)C1CCCCC1)C(=O)C(=O)NCC(=O)N[C@H](C(N)=O)c1ccccc1 (stereo partly drawn) (Isobutyloxycarbonyl-[Chg][ξPro(4R-NH2)](X15)[X2]G[Phg]-NH2) | 1 to 100 nM
11 | CCCC(NC(=O)C1C[C@@H](NC(=O)Nc2cccc3ccccc23)CN1C(=O)[C@@H](NC(=O)OCC(C)C)C1CCCCC1)C(=O)C(=O)NCC(=O)N[C@H](C(N)=O)c1ccccc1 (stereo partly drawn) (Isobutyloxycarbonyl-[Chg][ξPro(4R-NH2)]([CO-NH(1-naphthyl)])[X2]G[Phg]-NH2) | 101 to 1000 nM
12 | CCC[C@H](NC(=O)[C@@H]1CC(C)(C)CN1C(=O)[C@@H](NC(=O)OCC(C)C)C1(C)CCCCC1)C(=O)C(=O)NCC(=O)N[C@H](C(=O)N(C)C)c1ccccc1 (Isobutyloxycarbonyl-[Gly(1-Me-cHex)][Pro(4,4-Me2)][X12]G[Phg]-NMe2) | 1 to 100 nM
13 | CCC[C@H](NC(=O)[C@@H]1[C@H]2C[C@H]2CN1C(=O)[C@@H](NC(=O)OCC(C)C)C(C)(C)C)C(=O)C(=O)NCC(=O)N[C@H](C(=O)N(C)C)c1ccccc1 (Isobutyloxycarbonyl-[Tle][Pro(3S,4R-methano)][X12]G[Phg]-NMe2) | 1 to 100 nM
14 | CCC[C@H](NC(=O)[C@@H]1CC(C)(C)CN1C(=O)[C@@H](NC(=O)OCC(C)C)C(C)(C)C)C(=O)C(=O)NCC(=O)NC(C(=O)N(C)C)c1ccccc1 (some centres unmarked) (Isobutyloxycarbonyl-[Tle][Pro(4,4-Me2)][X12]G[ξPhg]-NMe2) | 1 to 100 nM
15 | CCC[C@H](NC(=O)[C@@H]1C[C@H](C)CN1C(=O)[C@@H](NC(=O)OCC(C)C)C(C)(C)C)C(=O)C(=O)NCC(=O)N[C@H](C(=O)N(C)C)c1ccccc1 (Isobutyloxycarbonyl-[Tle][Pro(4S-Me)][X12]G[Phg]-NMe2) | 1 to 100 nM
16 | CCC[C@H](NC(=O)[C@@H]1CC[C@H](C)N1C(=O)[C@@H](NC(=O)OCC(C)C)C(C)(C)C)C(=O)C(=O)NCC(=O)N[C@H](C(=O)N(C)C)c1ccccc1 (Isobutyloxycarbonyl-[Tle][Pro(5S-Me)][X12]G[Phg]-NMe2) | 1 to 100 nM

same assay, conditions: Table 5; HCV NS3/NS4A protease, spectrophotometric assay, 30° C., pH 6.5; read-out: Ki* Range

Row | SMILES | Ki
17 | CCCC(NC(=O)[C@@H]1C[C@H](OC(C)(C)C)CN1C(=O)[C@@H](NC(=O)OCC(C)C)C1CCCCC1)C(=O)C(=O)NCC(=O)N[C@H](C(=O)N(C)C)c1ccccc1 (some centres unmarked) (Isobutyloxycarbonyl-[Chg][cisHyp](tBu)[X2]G[Phg]-NMe2) | > 1000 nM
